# Data from the antibiotic and cytotoxicity screens of Wong et al. (2023).
# This is one part of the list.
# Tested on: HepG2
# Assay: cytotoxicity call (relative viability < 0.9)
# Details: 10 µM
row,SMILES,cytotoxicity call
1,CCNC(=O)C[C@H]1C=C[C@H](NC(=O)C2CC2)[C@@H](CO)O1,inactive
2,CNC[C@@H]1OCCCC[C@H](C)Oc2ccc(NS(=O)(=O)c3cn(C)cn3)cc2C(=O)N([C@H](C)CO)C[C@@H]1C,inactive
3,C[C@@H]1CCCCO[C@H](CN(C)S(=O)(=O)c2cn(C)cn2)[C@H](C)CN([C@H](C)CO)C(=O)c2cc(NS(C)(=O)=O)ccc2O1,inactive
4,C[C@@H]1CCCCO[C@@H](CN(C)C(=O)Nc2ccccc2)[C@@H](C)CN([C@H](C)CO)C(=O)c2cc(NC(=O)c3ccccc3)ccc2O1,inactive
5,C[C@@H]1CCCCO[C@H](CN(C)CC2CCCCC2)[C@@H](C)CN([C@H](C)CO)C(=O)c2cc(NC(=O)NC3CCCCC3)ccc2O1,inactive
6,Cc1ccc(C(=O)N(CCCN)[C@@H](c2nc3cc(Cl)ccc3c(=O)n2Cc2ccccc2)C(C)C)cc1,active
7,C[C@@H]1CN([C@H](C)CO)C(=O)CCCn2cc(nn2)CO[C@@H]1CN(C)S(=O)(=O)c1cccc(C#N)c1,inactive
8,CN1CCN(C(=O)C[C@H]2C=C[C@H](NC(=O)Nc3ccccc3F)[C@H](CO)O2)CC1,inactive
9,C[C@H](CO)N1C[C@H](C)[C@H](CN(C)Cc2ccc(Cl)c(Cl)c2)Oc2ccc(NC(=O)CCC(F)(F)F)cc2C1=O,inactive

# Tested on: S. aureus RN4220
# Assay: growth inhibition call (relative growth <= 0.2)
# Details: 50 µM
row,SMILES,growth inhibition call
1,C[C@H](CO)N1C[C@H](C)[C@H](CN(C)Cc2ccc(C(=O)Nc3ccccc3N)cc2)Oc2c(NC(=O)Nc3ccc4c(c3)OCO4)cccc2C1=O,inactive
2,O=C(NO)c1cn(-c2ccc(C[C@H]3C(=O)O[C@@H](Cc4ccccc4)[C@H]4[C@@H]5C=CCCC=C5CN43)cc2)nn1,inactive
3,CC(C)NC(=O)Nc1ccc2c(c1)C(=O)N([C@H](C)CO)C[C@H](C)[C@@H](CN(C)S(C)(=O)=O)OCCCC[C@@H](C)O2,inactive
4,Cl.c1ccc(CC2=NCCN2)cc1,inactive
5,COCC(=O)N1C[C@@H](C)[C@H](OC)CN(C)C(=O)c2ccc(NC(=O)c3ccc(F)cc3)cc2OC[C@H]1C,inactive
6,CCCCn1nc(C2CC2)nc1Cn1ncnn1,inactive
7,C[C@@H]1CN([C@H](C)CO)C(=O)c2c(c3ccccc3n2C)-c2ccccc2CO[C@H]1CN(C)C(=O)Nc1cccc(C(F)(F)F)c1,inactive
8,C[C@H]1CN([C@@H](C)CO)C(=O)c2cc(Br)cnc2O[C@@H]1CN(C)S(=O)(=O)c1ccccc1,inactive
9,Cc1noc(C)c1NC(=O)N(C)C[C@@H]1OCCCC[C@H](C)Oc2ccc(NC(=O)Nc3cccc4ccccc34)cc2C(=O)N([C@@H](C)CO)C[C@H]1C,inactive
10,Cc1ccccc1OCC(=O)NCC(=O)O,inactive
11,C[C@@H]1CN([C@@H](C)CO)C(=O)c2c(c3ccccc3n2C)-c2ccccc2CO[C@H]1CN(C)C(=O)Nc1cccc(F)c1,inactive
12,C[C@@H]1CN([C@H](C)CO)C(=O)c2cc(NC(=O)Nc3ccc(F)cc3)ccc2O[C@@H](C)CCCCO[C@H]1CN(C)S(=O)(=O)c1cccs1,inactive
13,C[C@@H]1CN([C@@H](C)CO)C(=O)c2cccc(NC(=O)Nc3ccccc3)c2O[C@@H]1CN(C)C(=O)Nc1ccc(C(F)(F)F)cc1,inactive
14,C[C@@H]1CN([C@H](C)CO)C(=O)Cc2cc(NC(=O)Nc3cccc4ccccc34)ccc2O[C@H]1CN(C)S(=O)(=O)c1ccc(F)cc1,inactive
15,Cl.NC(N)=NC(=O)Cc1c(Cl)cccc1Cl,inactive
16,C[C@H]1CN([C@@H](C)CO)C(=O)c2cccc(NC(=O)C3CCOCC3)c2O[C@H]1CN(C)S(=O)(=O)c1cn(C)cn1,inactive
17,Cc1c(O[C@@H]2O[C@H](COC(=O)C[C@@](C)(O)CC(=O)O)C[C@H](O)[C@H]2O)occc1=O,inactive
18,C[C@H]1CN([C@@H](C)CO)C(=O)c2cc(NC(=O)CCC(F)(F)F)ccc2O[C@@H]1CN(C)Cc1ccc(Cl)c(Cl)c1,inactive
19,COc1ccc(S(=O)(=O)N[C@@H]2C=C[C@@H](CC(=O)N3CCN(c4ccccc4)CC3)O[C@@H]2CO)cc1,inactive
20,C[C@@H]1CCCCO[C@@H](CN(C)C(=O)Nc2ccc(C(F)(F)F)cc2)[C@H](C)CN([C@H](C)CO)C(=O)c2cc(NS(=O)(=O)c3ccc(F)cc3)ccc2O1,inactive
21,Cn1nnc(NCc2ccccc2)n1,inactive
22,O=C(CCCCCC(=O)N/N=C/[C@H](O)[C@@H](O)[C@H](O)CO)NO,inactive
